Data reported in PubChem BioAssay AID624296 (National Center for Advancing Translational Sciences (NCATS), 2012).
The campaign covered roughly 350,000 compounds. About 9,900 (2.8%) were called active. Inconclusive results, whose numbers are uncertain, are shown with a selection of clear calls. Calls follow the shape of the dose curve; as a rule, active = well fitted activation curve with a large enough effect; inconclusive = small, poorly fitted or top-dose-only effect; inactive = no such curve, though single readings can be large or run the other way. No potency is given beside an inconclusive call; the fits are too rough.

assay: A quantitative high throughput screen for small molecules that induce DNA re-replication in MCF 10a normal breast cells.; also: nearly all actives have a fitted effect of over 50% in size; as to activity, positive = re-replication: % of control where 0% means no effect; settings: MCF 10A DNA re-replication, Hoechst nuclear intensity, 48 h; activity, positive = re-replication: at 46.1 µM (top of the series)
Potency is read from the fitted curve at half-maximal effect; tags tell the direction and shape of the fitted curve.

Compound	activity, positive = re-replication	Potency
Cc1nc2scc(-c3cccs3)c2c(=O)[nH]1	inactive: -6.79%	
COc1ccc2nc(SCC(=O)O)nc(C)c2c1	inactive: -0.792%	
Cn1c(=S)[nH]c2scc(-c3cccs3)c2c1=O		inconclusive [activator, single point]
Cc1cccc(NS(=O)(=O)c2cccc3nonc23)c1		inconclusive [activator, single point]
O=C(CSc1ccc([N+](=O)[O-])cc1)Nc1cccc(S(=O)(=O)Nc2ccccc2F)c1		inconclusive [activator, single point]
Cc1ccccc1C1C2=C(Nc3[nH]n(-c4ccccc4)c(=O)c31)c1ccccc1C2=O (stereo not given)		inconclusive [activator, partial curve, poor fit]
COc1ccc(Cc2nc(-c3ccccn3)no2)cc1		inconclusive [activator, single point]
Cc1ccc(S(=O)(=O)N2CCCN(c3nc4cc(C)ccc4cc3C#N)CC2)cc1		inconclusive [activator, partial curve, poor fit]
CCN(CC)S(=O)(=O)c1ccc2c(c1)nc(SCC(=O)N1CCCCCC1)n2-c1ccc(OC)cc1		inconclusive [activator, partial curve, poor fit]
CC1CCCN(CCCN2C(=O)C3C(C(=O)Nc4cccc(Cl)c4)C4C=CC3(O4)C2C(=O)NC2CCCCC2)C1 (stereo not given)		inconclusive [activator, partial curve]
Cc1ccc(S(=O)(=O)NC(=O)COc2ccc(Cl)cc2Cl)cc1	inactive: 13.7%	
COC(=O)c1c(N2C(=O)CC(Sc3ccccc3C(=O)O)C2=O)sc2c1CCCC2 (stereo not given)		inconclusive [activator, partial curve, poor fit]
Cc1cc(C)nc(N/N=C/C2=C(N3CCOCC3)C(=C\c3ccc(Cl)cc3)/CC2)n1		inconclusive [activator, single point]
COc1ccc(CNC(=S)N/N=C/c2ccc(O)c(OC)c2)cc1		inconclusive [activator, single point]
CCOC(=O)C1=C(C)N(CCCCCC(=O)O)C(=O)NC1c1ccc(Cl)cc1 (stereo not given)	inactive: -1.58%	
COc1ccc(NC(=O)c2c(N)no[n+]2[O-])cc1		inconclusive [activator, full curve]
Cc1ccc(C(=O)C(C)OC(=O)Cc2n[nH]c(=O)c3ccccc23)cc1C (stereo not given)		inconclusive [activator, single point]
Cc1ccccc1-c1nc(CN2CCCC2c2ccc(F)cc2)c(C)o1 (stereo not given)		active: 14.6 µM
COc1ccc(OC)c(N2Cc3ccccc3C2)c1		inconclusive [activator, partial curve, poor fit]
O=S(=O)(c1cccc(F)c1)N1CCN(Cc2ccc3c(c2)OCO3)CC1		inconclusive [activator, single point]
CCOC(=O)c1sc2nc(CC(C)C)c3c(c2c1N)CCC3		inconclusive [activator, partial curve]
O=C(CSc1nccn1-c1ccc(Cl)cc1)N1CCCc2ccccc21	inactive: 4.71%	
Cc1nc(-c2ccccc2)ccc1C(=O)O		inconclusive [activator, single point]

Compound	activity, positive = re-replication	Potency
CN(C)C(CNC(=O)CCCc1c[nH]c2ccccc12)c1ccco1 (stereo not given)		inconclusive [activator, partial curve, poor fit]
Cc1ccc(S(=O)(=O)N/N=C/c2cccc([N+](=O)[O-])c2)cc1		inconclusive [activator, single point]
CCC(C)(C)n1nnnc1C(c1ccc(O)c(OC)c1)N1CCc2ccccc2C1 (stereo not given)		inconclusive [activator, partial curve, poor fit]
CCN(CC)c1ccc(-c2nc3cnccn3c2NC2CCCC2)cc1		active: 16.4 µM
O=C1C(=O)N(CC2COc3ccccc3O2)c2ccccc21 (stereo not given)		inconclusive [activator, single point]
Cc1occc1C(=O)N/N=C/c1ccc(Cl)c([N+](=O)[O-])c1		inconclusive [activator, partial curve, poor fit]
NC1=NC(=Nc2cccc(Cl)c2)c2ccccc21		inconclusive [activator, single point]
CC(C)CC(=O)Nc1ccc(C(=O)COC(=O)C2CC(=O)N(Cc3ccccc3)C2)cc1 (stereo not given)	inactive: 3.73%	
O=c1[nH]c(-c2ccc(-c3cccc(Cl)c3)o2)nc2ccccc12		active: 10.3 µM
Cn1cc(C2NC(=O)c3ccccc3N2)c2ccccc21 (stereo not given)		active: 2.91 µM
CC(=O)N/C(=C\c1ccccc1)C(=O)OCC(=O)N(C)C1CCS(=O)(=O)C1 (stereo not given)	inactive: 11.8%	
CCOc1ccc(-c2cn[nH]c2N)cc1		active: 18.4 µM
COCCCNC(=O)C(=O)NCCCOC(C)C		inconclusive [activator, single point]
CC(OC(=O)c1cccc(-n2cnnn2)c1)C(=O)Nc1ccc(N(C)C)cc1 (stereo not given)	inactive: 10.4%	
C=Cc1ccc(CN2CCCN(Cc3ccc(F)cc3)S2(=O)=O)cc1		inconclusive [activator, single point]
Cc1cc(/C=C2\SC(=S)NC2=O)c(C)n1C1CC1	inactive: 9.04%	
COc1ccc(Cl)cc1NC(=S)Nc1ccccc1C	inactive: 13.4%	
CN(C)C(CNC(=O)c1cccc(S(=O)(=O)Nc2ccc(SC(F)F)cc2)c1)c1ccccc1 (stereo not given)		inconclusive [activator, partial curve, poor fit]
O=C(NCCCc1ccc(F)cc1)C1CCC(=O)N(CCCN2CCCC2=O)C1 (stereo not given)	inactive: 11.7%	
Nn1c(SCc2cccc(Oc3ccccc3)c2)nnc1C(F)(F)F		inconclusive [activator, single point]
COc1ccc(NC(=O)CSc2nc3n[nH]c(C)c3c(=N)n2-c2ccc(Cl)c(C)c2)cc1OC		inconclusive [activator, single point]
COC(=O)c1ccc(C2NC(C(=O)O)CS2)cc1 (stereo not given)		inconclusive [activator, full curve, poor fit]
